Values joined by “and” are separate entries in the source; they are usually repeats but may differ in a detail not shown here. Equal entries are not always repeated. Screen size: about 350,000 compounds; about 9,900 (2.8%) were called active. Inconclusive means that the source gave no clear call. Such entries were picked first, then a sample of the others. Calls come from the whole dose curve; as a rule, active = well fitted activation curve with a large enough effect; inconclusive = small, poorly fitted or top-dose-only effect; inactive = no such curve, though single readings can be large or run the other way. Potencies of inconclusive entries are doubtful fits and often do not repeat.
Experiment: A quantitative high throughput screen for small molecules that induce DNA re-replication in MCF 10a normal breast cells. For activity, positive = re-replication: % of control where 0% means no effect. Note: nearly all actives have a fitted effect of over 50% in size.
Conditions: MCF 10A DNA re-replication, Hoechst nuclear intensity, 48 h; activity, positive = re-replication: at 46.1 µM (top of the series)
Potency is the fitted concentration of half-maximal effect; tags give direction and shape of the fitted curve.

Compound | Potency | activity, positive = re-replication
CC1(C)C[C@H]2C=C(C=O)[C@]3(C=O)C[C@]3(C)[C@H]2C1 | active: 2.06 µM | 
CCCC(=O)Nc1cc(C(=O)N2CCC3(CC2)OCCO3)ccc1S(=O)(=O)c1ccc(C)cc1 |  | inactive: -3.06%
CC(=O)c1cc(C#N)c(N2CCN(C)CC2)nc1C |  | inactive: -29.1%
COC(=O)Nc1nc2ccccc2[nH]1 | inconclusive: 9.2 µM [activator, partial curve, poor fit] | 
C[C@H]1COC(=O)[C@H](Cc2ccc(F)cc2)CC/C=C/C[C@@H](CC(=O)N(CCO)Cc2ccccc2)C(=O)N1 | inconclusive: 29.1 µM [activator, single point] | 
CCC(C)C1NC(=O)C(NC(=O)C(CC(C)C)N(C)C(=O)C2CCCN2C(=O)C(C)O)C(C)OC(=O)C(Cc2ccc(OC)cc2)N(C)C(=O)C2CCCN2C(=O)C(CC(C)C)NC(=O)[C@H](C)C(=O)[C@H](C(C)C)OC(=O)CC1O (stereo partly specified) |  | inconclusive: 42.4% [activator]
CN1CCN(c2ccc([N+](=O)[O-])c3no[n+]([O-])c23)CC1 | active: 2.31 µM | 
Brc1cc(Br)c(Oc2cc(Br)c(Br)cc2Br)cc1Br | active: 14.6 µM | 
NC(=O)c1ccc(OCCC(O)N2CC=C(c3ccc(F)cc3)CC2)cc1 (stereo unspecified) | inconclusive: 2.59 µM [activator, single point] | 
Oc1ccccc1Cl | inconclusive: 3.66 µM [activator, single point] | 
CCCCCn1c(=O)c(C(=O)Nc2ccccc2S(N)(=O)=O)c(O)c2ccccc21 | active: 4.11 µM | 
CCOC(=O)c1c(C)n(Cc2ccccc2)c2ccc(OCC(O)Cn3nc(C)cc3C)cc12 (stereo unspecified) | inconclusive: 10.3 µM [activator, single point] | 
O=C(N/N=C/c1c(O)n(Cc2ccccc2)c(=O)[nH]c1=O)c1ccccc1O | inconclusive: 18.4 µM [activator, single point] | 
CC(C)CCn1c(N)c(C(=O)NCc2cccs2)c2nc3ccccc3nc21 | active: 1.46 µM | 
O=S(=O)(Nc1ccc(-c2nc3ccccc3o2)cc1)c1ccccc1 | inconclusive: 20.6 µM [activator, single point] | 
Clc1ccc(CSC(Cn2ccnc2)c2ccc(Cl)cc2Cl)cc1 (stereo unspecified) | inconclusive: 25.9 µM [activator, single point] | 
CC(C)CCNC(=O)CSc1nc2ccccc2c(=O)[nH]1 |  | inactive: 1.68%
COC(=O)C1=C(c2cc3ccccc3o2)C[C@@H]2CC[C@H]1N2C(=O)NCc1cccc2ccccc12 | inconclusive: 29.1 µM [activator, partial curve, poor fit] | 
CC(C)CN1CCN(Cc2ccc(C(F)(F)F)cc2)CC1CCO (stereo unspecified) | inconclusive: 29.1 µM [activator, single point] | 
Oc1c(Br)cc(Br)cc1Br | inconclusive: 25.9 µM [activator, partial curve, poor fit] | 
CCOC(=O)c1cccc(NC(=O)c2c(O)[nH]c(=O)[nH]c2=O)c1 |  | inactive: 23.3%
C#C[C@]1(O)CC[C@H]2[C@@H]3CCC4=Cc5nc6nc7ccccc7n6cc5C[C@]4(C)[C@H]3CC[C@@]21C | inconclusive: 4.61 µM [activator, single point] | 

Compound | Potency | activity, positive = re-replication
CC12CCC3C(CCC4(O)CC(O)CCC34C=O)C1(O)CCC2C1=CC(=O)OC1 (stereo unspecified) | inconclusive: 0.326 µM [activator, full curve, poor fit] | 
Fc1ccc(N2CCN(Cc3cc4c(cc3Br)OCO4)CC2)cc1 |  | inactive: 11.4%
Cc1ccc(-c2nc3ccccc3c(=O)n2-c2nccs2)cc1 | inconclusive: 29.1 µM [activator, single point] | 
CCOP(=O)(OCC)c1nc(-c2cccc3ccccc23)oc1N1CCCCC1 | inconclusive: 20.6 µM [activator, single point] | 
COC1CC(O[C@H]2/C(C)=C/CC3CC(C[C@]4(CCC(C)C(C5CCCCC5)O4)O3)OC(=O)[C@H]3C=C(C)/C(=N/O)C4OC/C(=C\C=C\[C@@H]2C)[C@@]43O)OC(C)C1O (stereo partly specified) | inconclusive: 33.5 µM [activator, single point] | 
CCC(C)/C=C(C)/C=C/C1=CC2=C(Cl)C(=O)C(C)(OC(C)=O)C(=O)C2=CO1 (stereo unspecified) | inconclusive: 25.9 µM [activator, single point] | 
Cc1ccc(N/N=C/C=C/c2ccco2)cc1 | active: 11.6 µM | 
c1cnc(N2CCNCC2)nc1 | inconclusive: 29.1 µM [activator, single point] | 
CC(C)(C)c1ccc(C(=O)C2CCCN(C3CCC3)C2)cc1 (stereo unspecified) | inconclusive: 9.2 µM [activator, partial curve, poor fit] | 
COC(=O)C1=C(c2ccccc2)C[C@@H]2CC[C@H]1N2C(=O)N1CCOCC1 |  | inactive: 8.35%
CCCC(C)C1(CC)C(=O)NC(=Nc2ccc(OC)cc2)NC1=O (stereo unspecified) |  | inactive: 7.04%
C/C(=N\Nc1ccccc1)c1c(O)n(C)c(=O)n(C)c1=O | inconclusive: 20.6 µM [activator, single point] | 
COC([CH2][Hg])CNC(=O)c1ccccc1OCC(=O)O (stereo unspecified) | inconclusive: 9.44 µM [activator, partial curve] | 
OC1/C(=C/c2ccc(F)cc2)N2CCC1CC2 (stereo unspecified) |  | inactive: 12.5%
CCCCn1c(=O)c(C(=O)NCc2ccc(Cl)cc2)c(O)c2ccccc21 | inconclusive: 18.4 µM [activator, single point] | 
Cc1cc([N+](=O)[O-])c2ccccc2[n+]1[O-] | active: 16.4 µM | 
Cc1cc(NC(=O)CCl)nn1C | inconclusive: 25.9 µM [activator, partial curve, poor fit] | 
Cc1cc(C)cc(N2C(=O)/C(=C\c3ccc(N4CCN(C)CC4)o3)C(=O)NC2=S)c1 | inconclusive: 20.6 µM [activator, single point] | 
Cc1ccc(-n2c(O)c(/C=N/Nc3ccccc3)c(=O)[nH]c2=O)cc1C | inconclusive: 20.6 µM [activator, single point] | 
CN(C)CC/C=C1/c2ccccc2Sc2ccc(Cl)cc21 | inconclusive: 20.6 µM [activator, partial curve, poor fit] | 
CCOC(=O)C1=C(NC(=S)NC(=O)c2ccccc2)c2ccccc2CC12CCCC2 | active: 11.6 µM | 
CC(=O)N1CCN(c2ccc(OC[C@H]3CO[C@](Cn4ccnc4)(c4ccc(Cl)cc4Cl)O3)cc2)CC1 | inconclusive: 11.6 µM [activator, partial curve, poor fit] and inconclusive: 3.26 µM [activator, partial curve] | 

Compound | Potency | activity, positive = re-replication
S=P(NCCSCc1ccccc1)(N1CC1)N1CC1 | active: 14.6 µM | 
O=C1c2ccccc2C(=O)c2c1ccc1c(=O)n(-c3ccccc3)[nH]c21 | inconclusive: 3.66 µM [activator, full curve] | 
c1coc(CNCCc2c[nH]c3ccccc23)c1 | inconclusive: 32.6 µM [activator, partial curve, poor fit] | 
CCN(CC)C(=O)c1ccc(N(Cc2ccccc2)S(C)(=O)=O)cc1 | inconclusive: 1.16 µM [activator, single point] | 
COc1ccc(/C=N\N=C(N)N)cc1 | inconclusive: 20.6 µM [activator, single point] | 
CC(NCc1ccc(Cl)cc1Cl)C(O)c1ccccc1 (stereo unspecified) | inconclusive: 6.51 µM [activator, single point] | 
Cc1ccc(/C=C/C2=NN(Cc3ccc(Cl)c(Cl)c3)C(=O)CC2)cc1 | inconclusive: 23.1 µM [activator, partial curve, poor fit] | 
Cc1ccc(S(=O)(=O)N(C)CCCC(=O)N2CCN(c3ccccn3)CC2)cc1 | inconclusive: 20 µM [activator, single point] | 
CC(C)c1ccc(O)c(CN2CCN(c3ccccc3)CC2)c1 | inconclusive: 29.1 µM [activator, single point] | 
COC(=O)C1=C(c2ccc(-c3ccccc3)c(F)c2)C[C@@H]2CC[C@H]1N2C(=O)NCCO |  | inactive: 14.7%
O=C1NC(=O)C(=Cc2ccc(-c3cc(Cl)ccc3[N+](=O)[O-])o2)C(=O)N1 |  | inactive: -4.53%
O=C(O)C1C2c3ccccc3C(=O)C1(C(=O)O)c1ccccc12 (stereo unspecified) |  | inactive: -0.902%
O=C1NC(=O)N(c2ccc(Cl)cc2)C(=O)/C1=C\c1ccc(Sc2nc3ccccc3[nH]2)o1 | inconclusive: 23.1 µM [activator, single point] | 
CCN(CC)Cc1c[nH]c2ccccc12 | inconclusive: 18.4 µM [activator, single point] | 
Cc1cccc(NP(=O)(Oc2ccccc2F)Oc2ccccc2F)c1C | inconclusive: 29.1 µM [activator, single point] | 
CNC(=O)Oc1cccc(-c2cn3cc(Cl)ccc3n2)c1 |  | inactive: 2.43%
O=P(Nc1cccc(F)c1)(Oc1ccccc1F)Oc1ccccc1F | inconclusive: 29.1 µM [activator, single point] | 
C[C@H]1CC2C3CC=C4C[C@@H](O)CC[C@]4(C)C3CC[C@]2(C)[C@H]1O (stereo partly specified) | inconclusive: 20.6 µM [activator, single point] | 
CCc1ccc(C2C(C#N)=C(N)Oc3n[nH]c(CC(=O)OC)c32)cc1 (stereo unspecified) | inconclusive: 29.1 µM [activator, single point] | 
O=C(NC1CC1)C1CSC(c2cccnc2)=N1 (stereo unspecified) | inconclusive: 23.1 µM [activator, single point] | 
COc1cc(C(=O)NCCCCCC(=O)O)cc(OC)c1OC | inconclusive: 2.06 µM [activator, full curve, poor fit] | 
COC(=O)C1=C(c2cc3ccccc3s2)C[C@@H]2CC[C@H]1N2C(=O)N1CCC(C)CC1 | inconclusive: 29.1 µM [activator, single point] | 
